In PMC4336329 (PLoS ONE, 2015):
Out of some 310,000 compounds screened, about 14,000 (4.5%) showed an effect of 50% or more. The effect is printed as a negative number. This is one part of the list.

Target: human ether-à-go-go-related gene (hERG) potassium channel (human, UniProt Q12809)
Assay: primary screen, population patch clamp on CHO cells stably expressing hERG
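Note: peak tail current of the secondary pulse compared with the same well before compound.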

Sequence of human ether-à-go-go-related gene (hERG) potassium channel (Q12809 whole entry, looked up): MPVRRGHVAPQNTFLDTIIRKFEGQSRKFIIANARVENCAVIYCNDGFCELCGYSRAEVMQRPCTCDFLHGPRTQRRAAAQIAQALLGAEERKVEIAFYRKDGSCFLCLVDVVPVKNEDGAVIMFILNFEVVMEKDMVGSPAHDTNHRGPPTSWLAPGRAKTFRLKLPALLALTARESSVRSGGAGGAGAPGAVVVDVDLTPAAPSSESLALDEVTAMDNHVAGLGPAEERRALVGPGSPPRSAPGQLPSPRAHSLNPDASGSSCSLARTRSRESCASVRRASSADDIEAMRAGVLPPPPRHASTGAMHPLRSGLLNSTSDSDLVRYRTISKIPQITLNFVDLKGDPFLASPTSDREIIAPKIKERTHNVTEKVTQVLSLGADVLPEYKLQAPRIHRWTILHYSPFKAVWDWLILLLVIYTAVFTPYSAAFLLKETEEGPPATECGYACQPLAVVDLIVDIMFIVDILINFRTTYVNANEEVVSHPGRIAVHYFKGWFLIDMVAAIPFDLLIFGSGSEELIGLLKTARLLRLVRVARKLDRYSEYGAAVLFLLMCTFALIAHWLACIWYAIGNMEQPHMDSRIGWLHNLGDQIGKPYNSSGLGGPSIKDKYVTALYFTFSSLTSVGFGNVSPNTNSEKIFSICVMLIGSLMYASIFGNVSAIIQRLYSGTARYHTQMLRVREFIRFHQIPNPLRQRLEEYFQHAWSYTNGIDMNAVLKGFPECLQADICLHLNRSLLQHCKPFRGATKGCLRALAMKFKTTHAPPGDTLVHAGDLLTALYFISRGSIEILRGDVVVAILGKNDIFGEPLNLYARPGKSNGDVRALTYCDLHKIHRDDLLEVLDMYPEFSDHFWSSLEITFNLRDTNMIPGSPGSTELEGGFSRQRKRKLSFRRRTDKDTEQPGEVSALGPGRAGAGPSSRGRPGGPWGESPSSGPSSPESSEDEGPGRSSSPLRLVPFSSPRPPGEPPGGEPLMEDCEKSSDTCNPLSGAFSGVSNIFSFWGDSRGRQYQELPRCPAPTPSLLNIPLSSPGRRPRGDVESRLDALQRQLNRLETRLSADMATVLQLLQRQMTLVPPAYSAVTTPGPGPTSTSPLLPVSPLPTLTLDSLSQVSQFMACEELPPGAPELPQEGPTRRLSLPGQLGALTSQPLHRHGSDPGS

| Structure (SMILES) | hERG current change (%, negative = inhibition) at 10uM [%] |
| --- | --- |
| CCOC(=O)[C@H]1[C@H]2COc3cc(OC)ccc3[C@@H]2N2C(=O)CN(Cc3ccccc3)C(=O)[C@@]12C | -8.34 |
| COc1ccc(C(CNC(=O)c2cc3ccccc3cc2O)N2CCOCC2)cc1 (centres unmarked) | -3.36 |
| O=C(CCC(=O)c1ccc(F)cc1)NCc1ccccc1C(F)(F)F | 19.1 |
| O=C(Nc1cnc2sccn2c1=O)c1ccccc1Cl | 4.42 |
| CC(C)(C)C(=O)NNC(=O)C1CC1(c1ccccc1)c1ccccc1 (centres unmarked) | 13.1 |
| CCOc1ccc(-c2c(C(=O)N/N=C/c3sccc3C)nnn2-c2nonc2N)cc1 | 19.7 |
| Cc1cn2nc(N)c3ccccc3c2n1 | -9.19 |
| Cc1ccc(COc2ccsc2C(=O)NN)cc1 | 1.72 |
| CC(=O)c1ccc(NC(=O)Nc2ccncc2)cc1 | 15.3 |
| CC1(C(=O)NC2CCCCC2)CCC(=O)N1Cc1cccnc1 (centres unmarked) | 11.6 |
| COc1ccc(-c2nc(N)n[nH]2)cc1 | 19.8 |
| COC(=O)c1ccc(NC(=O)COc2ccc(S(=O)(=O)NC(C)(C)C)cc2)cc1 | 24.9 |
| COCCCNC(=O)/C(C#N)=C/c1c(N2CCN(C)CC2)nc2c(C)cccn2c1=O | 14.9 |
| Cc1ccn2c(c1)nc(=O)c1cc(S(=O)(=O)N3CCC(C)CC3)ccc12 | -36.3 |
| O=C(COc1ccc(Br)cc1Cl)N1CCN(c2ncccn2)CC1 | -49.7 |
| CSc1ncc(C(=O)O)c(C)n1 | 3.36 |
| CCOC(=O)C(Oc1ccc2c(-c3ccccc3)cc(=O)oc2c1C)c1ccccc1 (centres unmarked) | 7.58 |
| Cc1cc(NC(=O)c2c(Cl)c(C)nn2C)no1 | 11.1 |
| CC(=O)NCCNC(=O)CNC(=O)c1ccc(Cl)cc1 | 9 |
| CC1CN(C(=O)c2ccc(CNS(=O)(=O)c3cccc(C(F)(F)F)c3)cc2)CC(C)O1 (centres unmarked) | 9.72 |
| COc1cccc(CNC(=O)c2ccccc2-c2ccccc2C(=O)O)c1 | 18 |
| COC(=O)c1ccccc1OCCOCCOc1cccc2ccc(C)nc12 | -48.5 |

| Structure (SMILES) | hERG current change (%, negative = inhibition) at 10uM [%] |
| --- | --- |
| COc1ccc(NC(=O)CSc2nnc(NC(=O)c3ccco3)s2)cc1 | 12.2 |
| O=C1CCN(Cc2ccc([N+](=O)[O-])cc2)CCN1[C@H](CO)c1ccccc1 | -37.4 |
| CC(=O)Nc1ccc(S(=O)(=O)N2CC3(C)CC2CC(C)(C)C3)cc1 (centres unmarked) | -1.79 |
| COC(=O)c1ccc2c(=O)n(Cc3ccco3)c(SCC(=O)Nc3ccccc3Cl)nc2c1 | -4.06 |
| CCOc1c(CNCc2ccc(C(=O)O)cc2)cccc1OC.Cl | 2.85 |
| CCOC(=O)CN1C(=O)NC2NC(=O)NC21 (centres unmarked) | 15.5 |
| COc1ccc(-n2nc(C(=O)NCC(=O)N3CCC(C(N)=O)CC3)c3ccccc3c2=O)cc1OC | 10.7 |
| N#CCc1c(C#N)c(N)nc(N2CCN(S(=O)(=O)c3ccccc3)CC2)c1C#N | -0.357 |
| CCN(CC)c1nc2c(c(=O)[nH]c(=O)n2C)n1CCCc1ccccc1 | -45.3 |
| COc1ccc(CNS(=O)(=O)c2ccc3c(c2)CCN3C(=O)C2CC2)cc1 | -7.39 |
| COc1cccc(CNC(=S)Nc2cc(C)cc(C)c2)c1 | 6.62 |
| COC(=O)c1[nH]c2cc(C)ccc2c1NC(=O)CN1CCN(C(=O)c2ccco2)CC1 | -54.3 |
| Cn1ncc(N=Cc2ccccc2O)c1C(=O)N1CCOCC1 | 2.23 |
| O=[N+]([O-])c1ccccc1S(=O)(=O)c1ccccc1[N+](=O)[O-] | 15.6 |
| COc1ccccc1-c1cc(C(=O)NCCN2CCOCC2)no1 | 0.284 |
| Cc1cc(C(=O)NNc2cc(Cl)ccc2Cl)no1 | 6.55 |
| CC(C)C(=O)NC(=S)Nc1c(Cl)ccc2nsnc12 | -7.83 |
| COc1ccc(OC)c(NC(=O)CC2SC(=Nc3ccccc3)N(CCc3ccccn3)C2=O)c1 (centres unmarked) | -13.6 |
| FC(F)(F)c1ccccc1NC(=S)N1CCCCCC1 | 19.3 |
| O=C(CNC(=O)C1CCCC1)Nc1ccccc1Br | -1.32 |
| COc1ccc(CCN=C2SCC(=O)N2Cc2ccccc2)cc1OC | -7.84 |
| Cc1ccc(/C=N/NC(=O)c2cccc(S(=O)(=O)Nc3ccccc3Cl)c2)s1 | -22 |
